What was measured:
[1] = target: T1, Calsepa (Calystegia sepium, UniProt P93114); conditions: crystal pH 7.5, 3.0 M NaCl, 20 °C; NMR at 15 °C, very weak binding
T1 construct: recombinant lectin bought from Wako Pure Chemicals; 16 kDa
T1 sequence (P93114 2-153): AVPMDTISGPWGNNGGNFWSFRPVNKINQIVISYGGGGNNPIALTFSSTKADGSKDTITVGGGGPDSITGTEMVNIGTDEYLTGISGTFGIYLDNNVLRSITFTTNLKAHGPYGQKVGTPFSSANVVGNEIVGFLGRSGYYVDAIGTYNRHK

[2] = target: T2, PHA-E (Phaseolus vulgaris, UniProt P05088); conditions: crystal pH 4.5, PEG3,350, 20 °C; primary binding site; Ca and Mn present; labelled compound (pyridylamino)
T2 construct: gene DLEC1

| SMILES | X-ray crystal structure 1.85 Å; also 1H-NMR titration and transferred NOE [1] | X-ray crystal structure 3.0 Å [2] |
| --- | --- | --- |
| CO[C@H]1O[C@H](CO[C@H]2O[C@H](CO)[C@@H](O)[C@H](O)[C@@H]2O[C@@H]2O[C@H](CO)[C@@H](O)[C@H](O)[C@H]2NC(C)=O)[C@@H](O[C@@H]2O[C@H](CO)[C@@H](O)[C@H](O)[C@H]2NC(C)=O)[C@H](O[C@H]2O[C@H](CO)[C@@H](O)[C@H](O)[C@@H]2O[C@@H]2O[C@H](CO)[C@@H](O)[C@H](O)[C@H]2NC(C)=O)[C@@H]1O [glycan 1, GlcNAcβ1–2Manα1–3[GlcNAcβ1–4][GlcNAcβ1–2Manα1–6]Manα1-O-methyl] | crystal structure of Calsepa in complex with GlcNAc-terminated bisected N-glycan unit | – |
| CC(=O)N[C@H]1[C@H](O[C@@H]([C@H](O)[C@H](CNc2ccccn2)NC(C)=O)[C@H](O)CO[C@@H]2O[C@@H](C)[C@@H](O)[C@@H](O)[C@@H]2O)O[C@H](CO)[C@@H](O[C@@H]2O[C@H](CO[C@H]3O[C@H](CO)[C@@H](O)[C@H](O)[C@@H]3O[C@@H]3O[C@H](CO)[C@@H](O[C@@H]4O[C@H](CO)[C@H](O)[C@H](O)[C@H]4O)[C@H](O)[C@H]3NC(C)=O)[C@@H](O[C@@H]3O[C@H](CO)[C@@H](O)[C@H](O)[C@H]3NC(C)=O)[C@H](O[C@H]3O[C@H](CO)[C@@H](O)[C@H](O)[C@@H]3O[C@@H]3O[C@H](CO)[C@@H](O)[C@H](O)[C@H]3NC(C)=O)[C@@H]2O)[C@@H]1O [glycan 2, GlcNAcβ1–2Manα1–3[GlcNAcβ1–4][Galβ1–4GlcNAcβ1–2Manα1–6]Manβ1–4GlcNAcβ1–4[Fucα1–6]GlcNAc-pyridylamino (PA)] | – | crystal structure of PHA-E in complex with a longer bisected N-glycan derivative |
